The results in this text go back to ChEMBL document CHEMBL4888484, “Replenishing the malaria drug discovery pipeline: Screening and hit evaluation of the MMV Hit Generation Library 1 (HGL1) against asexual blood stage Plasmodium falciparum ,using a nano luciferase reporter read-out” (2022).

A word on the % Inhibition: it is the relative decrease from the control value, in per cent.

SMILES strings stand for the structures. In all, about 150,000 compounds went through this assay and about 540 (0.36%) showed an effect of 50% or more. The list shows a part of the results.

The assay has as its system Plasmodium falciparum. Nature of the assay: Primary screen in NF54 nanoGlo assay, in single point, at 2uM, 72h; a lower Z score goes with more inhibition. To be noted: timepoint 72 hour. The assay is classed as functional, Erythrocyte.
On to `Cc1ccc2c(c1)CN(C(=O)[C@H](C)c1cnn(C)c1)C(C)(C)C2`, for which the “% Inhibition” value is on record as -5% and the Z score stood at 0.71.

For `CC1(C)C[C@@H](NCc2ncc[nH]2)CCN(C(=O)OC(C)(C)C)C1`, the “% Inhibition” value was -11% and the Z score is on record as 1.07.

As to `COc1ccc([C@@H](C)CNC2(CO)CCCC2)cc1`, the “% Inhibition” value turned out to be 0% and the Z score was determined as 0.05.

`COCCN1C[C@@H](Cc2ccc(O)c(C)c2)CC1=O`: the “% Inhibition” value came to 16% and the Z score was -2.

In the case of `COc1ccc(C)cc1CN[C@@H](Cc1c[nH]c2ccccc12)C(=O)O`, the “% Inhibition” value came out at 17% and the Z score is recorded as -2.02.

For `O=C(c1cc(-c2ccccc2)nc2ccccc12)N(Cc1ccco1)C1CC1`, the “% Inhibition” value is reported as 1% and the Z score was -0.1.

As to `CC1CN(CC(=O)NCC(C)c2nc3ccccc3s2)C(C)CO1` (stereo unspecified), the “% Inhibition” value is -2% and the Z score is recorded as 0.25.

For the compound `CCN1CCN(CCC(=O)Nc2ccc3c(c2)OCO3)CC1`, the “% Inhibition” value is on record as -5% and the Z score is 0.77.

For `O=S(=O)(Cc1ccccc1F)N1CCOc2ncccc21`, the “% Inhibition” value is reported as -19% and the Z score is 3.54.

Take `O=C(c1cncc(Br)c1)N1CCC[C@H](CN2CCCC2)CC1`: the “% Inhibition” value was -1% and the Z score stood at 0.18.

Turning to `CS(=O)(=O)CCN1CC[C@@]2(CCCN(C3CCCC3)C2=O)C1`, the “% Inhibition” value is reported as -3% and the Z score was found to be 0.53.

Turning to `CC(=O)N1CCc2cc(-c3ccc(C(=O)NCCC(C)C)cc3)ccc21`, the “% Inhibition” value was 40% and the Z score is -4.5.

As to `CCn1nc(C)cc1C(=O)N(CC1CCN(CCc2ccccc2C)CC1)C1CCCC1`, the “% Inhibition” value came to 5% and the Z score is reported as -0.71.

In the case of `COc1ccc(Br)c2c1CCN(C(=O)CO)CC2`, the “% Inhibition” value is listed as -4% and the Z score is 0.59.

`O=C(N[C@H]1CCN(C2CCCCC2)C1=O)c1ccnc(-c2ncc[nH]2)c1`: the “% Inhibition” value is recorded as -4% and the Z score was 0.4.

Turning to `C[C@@H](NC1CCCCCCC1)C(=O)OC(C)(C)C`, the “% Inhibition” value is reported as -8% and the Z score turned out to be 0.69.

On to `COc1ccc(NC(=O)C(N)=O)c(OC)c1`, for which the “% Inhibition” value is given as -1% and the Z score was 0.14.

As for `Cc1cc(C)n(CCCN(C)Cc2cnn(-c3cccc(F)c3)c2)n1`, the “% Inhibition” value was -7% and the Z score is 1.1.

Turning to `NC(=O)COc1ccccc1Br`, the “% Inhibition” value was -6% and the Z score was found to be 0.86.

As to `O=C(Cc1ccc(F)cc1)NCc1ccc(OCc2cccnc2)cc1`, the “% Inhibition” value is reported as -10% and the Z score was found to be 1.87.

As to `CC(C)(NCC#N)c1ccc(F)c(F)c1`, the “% Inhibition” value is given as -18% and the Z score stood at 2.07.

With `O=C(NC[C@@H](CO)Cc1ccccc1)c1sccc1OC(F)F`, the “% Inhibition” value is on record as -10% and the Z score amounted to 0.89.

Take `C=CCN1CC2(CCC1=O)CCN(C[C@H]1Cc3c(C)nc(C)nc3O1)CC2`: the “% Inhibition” value is -4% and the Z score is 0.49.

Consider `CC1CCCC(CCN2CCCN(C(N)=O)CC2)C1` (stereo unspecified), for which the “% Inhibition” value came to 25% and the Z score was -2.79.

On to `CCC(=O)NCCn1cnc(C2CC2)cc1=O`, for which the “% Inhibition” value is -3% and the Z score was determined as 0.61.

Regarding `CN=C(NCCc1ccc(OC(F)F)cc1)NCc1ncccc1C`, the “% Inhibition” value is recorded as -6% and the Z score came out at 0.62.

Take `Cc1ccc(N2CCC[C@@]3(CCC(=O)N(CCc4c[nH]cn4)C3)C2)nc1`: the “% Inhibition” value was -17% and the Z score was found to be 2.21.

In the case of `Cc1cc(C(=O)N2C[C@@H]3CC[C@H]2CN(S(=O)(=O)N(C)C)C3)c(C)o1`, the “% Inhibition” value is recorded as 4% and the Z score is given as -0.48.

With `O=C(O)C1CC[C@@H](c2ccccc2)N1C(=O)Cc1ccc(O)cc1` (stereo partly specified), the “% Inhibition” value is -19% and the Z score is recorded as 2.06.

On to `COc1ccc(CCNC(=O)CN2C[C@H](C)[C@@](O)(C3CCC3)C2)cc1`, for which the “% Inhibition” value was -3% and the Z score amounted to 0.57.

Take `O=C(c1ncccc1O)N1CCCC1CC(O)c1cccs1` (stereo unspecified): the “% Inhibition” value is reported as 0% and the Z score is on record as -0.04.

Take `CS(=O)(=O)c1ccc(OC[C@@]2(CNC(=O)C3CCC3)C[C@@H](O)[C@@H](O)C2)cc1`: the “% Inhibition” value came to 0% and the Z score is 0.01.

Turning to `O=C(c1cnn2c(-c3ccccc3Cl)ccnc12)N1CCC(Cc2ccccc2)CC1`, the “% Inhibition” value was -1% and the Z score was found to be 0.07.

For `CCC[C@@H](CC(=O)O)NC(=O)c1cccc(=O)[nH]1`, the “% Inhibition” value was -5% and the Z score is reported as 0.48.

Consider `Cn1cccc1CNc1ccc(C(=O)N2CCCCC2)nc1`, for which the “% Inhibition” value is recorded as -1% and the Z score stood at 0.09.

Take `CC(C)[C@H]1CN(c2ncc(F)c(N3CCOCC3)n2)C[C@@H]1N(C)C`: the “% Inhibition” value is on record as 25% and the Z score was -3.2.

As to `Cc1nc(-c2cnn3cc(CCO)cnc23)n(C2Cc3ccccc3C2)n1`, the “% Inhibition” value is -10% and the Z score amounted to 2.08.

On to `O=C(CN1CCCc2sccc2C1=O)NCc1nc(-c2ccc(F)cc2)c[nH]1`, for which the “% Inhibition” value is -2% and the Z score came to 0.25.

As to `CCCCC1CCC(CNC(=O)Nc2nc(CS(C)(=O)=O)no2)CC1` (stereo unspecified), the “% Inhibition” value was found to be 1% and the Z score is -0.24.

Turning to `O=C(C[C@H]1CCCS(=O)(=O)C1)Nc1cnccc1-c1cccc(F)c1`, the “% Inhibition” value is on record as -1% and the Z score turned out to be 0.23.

Consider `COCCn1nnnc1[C@]1(N2CCCC2)CCN(C(=O)COCc2ccccc2)C1`, for which the “% Inhibition” value is listed as -1% and the Z score stood at 0.13.

In the case of `O=C1N(CCc2c[nH]c3ccccc23)c2ccccc2NC12CCNCC2`, the “% Inhibition” value was -1% and the Z score is 0.23.

For `CCc1nnc(CNc2nc3c(s2)c(C)nn3C)s1`, the “% Inhibition” value is -3% and the Z score was determined as 0.59.
